Positions count from the first letter of the chain named. These are yes or no findings as the source states them, for the method shown. For some assays here: In cells and extracts the contact can be indirect. Some results given as binding are weak or reduced against the parent protein; the word gives no strength. For some assays here: Sequences can lack the tags named with a protein. One block for each binder: values may come before it.
Assays:
Flag-mSYCE1 (mouse) = target: T1, Flag-mSYCE1 (mouse) (UniProt Q9D495); experiment: co-IP; HEK293T cells cotransfected; whole-cell extracts; immunoprecipitation with anti-Flag, anti-EGFP or anti-Myc antibodies, mouse IgG as negative control; protein G Sepharose; immunoblot
T1 sequence: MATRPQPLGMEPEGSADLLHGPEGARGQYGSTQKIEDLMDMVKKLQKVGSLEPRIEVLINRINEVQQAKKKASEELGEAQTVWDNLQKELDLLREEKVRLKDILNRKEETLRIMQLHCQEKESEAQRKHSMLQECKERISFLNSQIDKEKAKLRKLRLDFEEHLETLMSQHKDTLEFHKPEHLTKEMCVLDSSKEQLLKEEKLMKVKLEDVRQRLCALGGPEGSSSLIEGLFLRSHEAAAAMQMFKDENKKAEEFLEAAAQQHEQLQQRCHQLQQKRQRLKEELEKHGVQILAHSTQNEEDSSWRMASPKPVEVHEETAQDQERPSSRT

Amino acid sequences for entries named in this document (tags omitted).
UniProt B5KM66: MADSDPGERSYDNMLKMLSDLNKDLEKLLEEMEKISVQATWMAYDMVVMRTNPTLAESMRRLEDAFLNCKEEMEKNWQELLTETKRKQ

[1] = target: T2, SIX6OS1 Δ10–21 (mouse) (mouse) (UniProt Q9CTN5); experiment: as above
T2 sequence: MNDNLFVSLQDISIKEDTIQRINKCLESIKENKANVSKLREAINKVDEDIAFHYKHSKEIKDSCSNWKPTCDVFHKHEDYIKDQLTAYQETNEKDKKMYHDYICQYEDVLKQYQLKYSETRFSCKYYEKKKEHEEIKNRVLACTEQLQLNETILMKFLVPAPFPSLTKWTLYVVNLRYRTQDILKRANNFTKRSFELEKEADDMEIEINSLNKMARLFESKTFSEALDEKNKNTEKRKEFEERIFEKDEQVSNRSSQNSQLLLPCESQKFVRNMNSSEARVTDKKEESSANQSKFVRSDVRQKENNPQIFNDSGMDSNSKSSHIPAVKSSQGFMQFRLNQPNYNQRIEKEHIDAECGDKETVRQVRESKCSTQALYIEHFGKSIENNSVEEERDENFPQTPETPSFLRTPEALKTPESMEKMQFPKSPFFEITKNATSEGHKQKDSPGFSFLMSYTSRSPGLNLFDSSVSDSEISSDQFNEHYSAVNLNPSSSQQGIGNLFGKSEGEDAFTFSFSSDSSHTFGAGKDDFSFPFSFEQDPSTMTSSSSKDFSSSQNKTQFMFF

[2] = target: T3, SYCE1 (construct purified with SYCE3, fig. S7, A and B) (human) (UniProt Q8N0S2); experiment: co-purification; SYCE1 with SYCE3; dissociation during purification (fig. S7, A and B)
T3 sequence: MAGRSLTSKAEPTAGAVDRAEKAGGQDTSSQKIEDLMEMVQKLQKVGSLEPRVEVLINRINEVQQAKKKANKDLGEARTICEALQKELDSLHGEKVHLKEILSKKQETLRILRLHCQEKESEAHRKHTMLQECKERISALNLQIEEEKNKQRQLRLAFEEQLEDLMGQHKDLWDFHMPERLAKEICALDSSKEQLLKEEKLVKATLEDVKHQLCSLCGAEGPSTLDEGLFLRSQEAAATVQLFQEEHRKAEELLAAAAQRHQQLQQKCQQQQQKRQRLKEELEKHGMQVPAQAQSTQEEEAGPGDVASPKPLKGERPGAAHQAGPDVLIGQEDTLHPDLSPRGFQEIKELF

[3] = target: T4, SYCE1 (mouse, construct of the co-immunoprecipitation with SYCE3, Fig. 4D) (mouse) (UniProt Q9D495); experiment: co-IP; HEK293T cells cotransfected; whole-cell extracts; immunoprecipitation with anti-Flag, anti-EGFP or anti-Myc antibodies, mouse IgG as negative control; protein G Sepharose; immunoblot
T4 sequence: T1 sequence

[4] = target: T5, SIX6OS1 1–262, yeast two-hybrid fusion (human) (UniProt Q8N1H7); experiment: two-hybrid; Matchmaker Gold; pGBKT7 in Y187 mated with pGADT7 in Y2H gold; SD/-Trp/-Leu/-Ade/-His with X-alpha-gal, growth of blue colonies, 5 days at 30°C
T5 sequence: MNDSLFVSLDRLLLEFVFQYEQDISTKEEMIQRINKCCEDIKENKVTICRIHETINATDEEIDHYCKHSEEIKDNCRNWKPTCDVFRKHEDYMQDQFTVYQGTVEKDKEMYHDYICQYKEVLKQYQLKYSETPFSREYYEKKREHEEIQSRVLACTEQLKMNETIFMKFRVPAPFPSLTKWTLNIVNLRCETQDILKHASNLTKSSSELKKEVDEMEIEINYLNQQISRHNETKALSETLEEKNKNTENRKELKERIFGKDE

[5] = target: T6, SIX6OS1 1–22, yeast two-hybrid fusion (human) (UniProt Q8N1H7); experiment: as above
T6 sequence: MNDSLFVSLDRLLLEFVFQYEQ

[6] = target: T7, SIX6OS1 1–75, yeast two-hybrid fusion (human) (UniProt Q8N1H7); experiment: as above
T7 sequence: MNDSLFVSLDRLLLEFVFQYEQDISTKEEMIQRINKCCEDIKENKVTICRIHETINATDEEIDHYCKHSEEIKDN

[7] = target: T8, full-length SIX6OS1 Δ10–21, yeast two-hybrid fusion (human) (UniProt Q8N1H7); experiment: as above
T8 sequence: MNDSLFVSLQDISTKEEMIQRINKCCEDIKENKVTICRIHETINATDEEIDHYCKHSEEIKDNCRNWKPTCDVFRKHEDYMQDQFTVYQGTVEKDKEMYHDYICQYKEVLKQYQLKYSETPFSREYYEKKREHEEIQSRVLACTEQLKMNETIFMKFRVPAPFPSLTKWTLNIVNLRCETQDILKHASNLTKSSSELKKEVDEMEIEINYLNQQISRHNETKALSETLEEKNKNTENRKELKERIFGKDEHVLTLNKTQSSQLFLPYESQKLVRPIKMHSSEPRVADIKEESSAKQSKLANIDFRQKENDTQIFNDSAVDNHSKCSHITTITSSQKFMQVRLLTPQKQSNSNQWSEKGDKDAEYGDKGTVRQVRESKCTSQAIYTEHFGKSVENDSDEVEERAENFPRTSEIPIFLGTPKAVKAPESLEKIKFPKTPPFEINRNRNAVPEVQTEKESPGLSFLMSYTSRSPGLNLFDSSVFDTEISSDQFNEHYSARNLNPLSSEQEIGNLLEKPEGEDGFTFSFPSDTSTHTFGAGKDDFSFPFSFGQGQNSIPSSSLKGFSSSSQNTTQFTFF

[8] = target: T9, full-length SIX6OS1, yeast two-hybrid fusion (human) (UniProt Q8N1H7); experiment: as above
T9 sequence: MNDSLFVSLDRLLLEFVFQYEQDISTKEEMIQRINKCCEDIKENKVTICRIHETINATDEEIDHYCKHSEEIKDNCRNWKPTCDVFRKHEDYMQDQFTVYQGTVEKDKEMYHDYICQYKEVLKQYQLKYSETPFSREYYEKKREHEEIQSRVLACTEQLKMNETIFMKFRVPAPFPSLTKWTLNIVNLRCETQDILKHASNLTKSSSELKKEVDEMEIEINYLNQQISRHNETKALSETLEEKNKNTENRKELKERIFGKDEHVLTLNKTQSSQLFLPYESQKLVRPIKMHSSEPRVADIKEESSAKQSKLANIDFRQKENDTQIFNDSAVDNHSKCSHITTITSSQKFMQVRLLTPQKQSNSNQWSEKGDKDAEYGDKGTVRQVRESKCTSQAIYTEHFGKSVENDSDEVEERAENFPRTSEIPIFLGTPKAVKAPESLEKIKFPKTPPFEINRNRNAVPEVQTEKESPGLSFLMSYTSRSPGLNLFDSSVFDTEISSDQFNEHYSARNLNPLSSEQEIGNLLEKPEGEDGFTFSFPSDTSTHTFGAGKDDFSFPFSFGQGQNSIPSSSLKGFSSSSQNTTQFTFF

[9] = target: T10, SIX6OS1 1–262 Δ10–21, yeast two-hybrid fusion (human) (UniProt Q8N1H7); experiment: as above
T10 sequence: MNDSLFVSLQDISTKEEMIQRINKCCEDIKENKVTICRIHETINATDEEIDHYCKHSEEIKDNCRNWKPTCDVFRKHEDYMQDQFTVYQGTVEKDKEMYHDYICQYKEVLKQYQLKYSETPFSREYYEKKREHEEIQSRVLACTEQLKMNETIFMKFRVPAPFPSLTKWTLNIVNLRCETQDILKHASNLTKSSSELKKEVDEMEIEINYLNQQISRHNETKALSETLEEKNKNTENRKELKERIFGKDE

[10] = target: T11, MBP-SIX6OS1N (MBP-SIX6OS1 1–67) (human) (UniProt Q8N1H7); experiment: pull-down; amylose pulldown following bacterial coexpression of MBP-SIX6OS1 constructs with His-SYCE1core; MBP fusion held on amylose
T11 sequence: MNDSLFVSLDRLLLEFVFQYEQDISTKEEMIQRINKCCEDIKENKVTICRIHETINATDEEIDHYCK

B1: GFP-mSIX6OS1 (protein, UniProt Q9CTN5 1-574)
chain: MNDNLFVSLDRLLLEFVFQYEQDISIKEDTIQRINKCLESIKENKANVSKLREAINKVDEDIAFHYKHSKEIKDSCSNWKPTCDVFHKHEDYIKDQLTAYQETNEKDKKMYHDYICQYEDVLKQYQLKYSETRFSCKYYEKKKEHEEIKNRVLACTEQLQLNETILMKFLVPAPFPSLTKWTLYVVNLRYRTQDILKRANNFTKRSFELEKEADDMEIEINSLNKMARLFESKTFSEALDEKNKNTEKRKEFEERIFEKDEQVSNRSSQNSQLLLPCESQKFVRNMNSSEARVTDKKEESSANQSKFVRSDVRQKENNPQIFNDSGMDSNSKSSHIPAVKSSQGFMQFRLNQPNYNQRIEKEHIDAECGDKETVRQVRESKCSTQALYIEHFGKSIENNSVEEERDENFPQTPETPSFLRTPEALKTPESMEKMQFPKSPFFEITKNATSEGHKQKDSPGFSFLMSYTSRSPGLNLFDSSVSDSEISSDQFNEHYSAVNLNPSSSQQGIGNLFGKSEGEDAFTFSFSSDSSHTFGAGKDDFSFPFSFEQDPSTMTSSSSKDFSSSQNKTQFMFF
- binding (Flag-mSYCE1 (mouse)): binds

B2: Flag-mSYCE1 (protein, UniProt Q9D495 1-329)
chain: T1 sequence
- binding [1]: binds

B6: His-SYCE1core (domain or fragment, UniProt Q8N0S2 25-179)
chain: GQDTSSQKIEDLMEMVQKLQKVGSLEPRVEVLINRINEVQQAKKKANKDLGEARTICEALQKELDSLHGEKVHLKEILSKKQETLRILRLHCQEKESEAHRKHTMLQECKERISALNLQIEEEKNKQRQLRLAFEEQLEDLMGQHKDLWDFHMPE
- binding [10]: binds

B7: SYCE1 177–305, yeast two-hybrid fusion (domain or fragment, UniProt Q8N0S2 177-305)
chain: MPERLAKEICALDSSKEQLLKEEKLVKATLEDVKHQLCSLCGAEGPSTLDEGLFLRSQEAAATVQLFQEEHRKAEELLAAAAQRHQQLQQKCQQQQQKRQRLKEELEKHGMQVPAQAQSTQEEEAGPGD
- binding [5]: no binding
- binding [7]: binds
- binding [8]: binds

Second part, the binder after the results:

- binding [2]: binds weakly
B3: SYCE3 (construct purified with SYCE1, fig. S7, A and B) (protein, UniProt A1L190 1-88)
chain: MDDADPEERNYDNMLKMLSDLNKDLEKLLEEMEKISVQATWMAYDMVVMRTNPTLAESMRRLEDAFVNCKEEMEKNWQELLHETKQRL

- binding [3]: binds weakly
B4: SYCE3 (mouse) (protein, UniProt B5KM66 1-88)
chain: B3 chain with D2A, A4S, E7G, N10S, V67L, H82T, Q86R, R87K, L88Q

- binding [4]: binds
- binding [5]: no binding
- binding [6]: binds
- binding [7]: no binding
- binding [8]: binds
- binding [9]: no binding
B5: SYCE1core (25–179), yeast two-hybrid fusion (domain or fragment, UniProt Q8N0S2 25-179)
chain: B6 chain

— article PMC7467691, “Meiotic chromosome synapsis depends on multivalent SYCE1-SIX6OS1 interactions that are disrupted in cases of human infertility” (Science Advances, 2020)
